This is an account of results in paper PMC3897701.

Sequences of proteins named here, by UniProt entry; tags and fusion partners are left off. A change or cut given only in a name is not applied to a line headed by its entry. Residues count along the entry.
UniProt P41273, residues 50-254: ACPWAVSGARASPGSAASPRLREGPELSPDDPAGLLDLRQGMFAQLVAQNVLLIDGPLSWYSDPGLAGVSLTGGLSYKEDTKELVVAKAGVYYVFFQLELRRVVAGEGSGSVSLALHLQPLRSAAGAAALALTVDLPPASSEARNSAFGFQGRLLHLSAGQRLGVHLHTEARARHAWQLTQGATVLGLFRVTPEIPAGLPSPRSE
UniProt Q07011: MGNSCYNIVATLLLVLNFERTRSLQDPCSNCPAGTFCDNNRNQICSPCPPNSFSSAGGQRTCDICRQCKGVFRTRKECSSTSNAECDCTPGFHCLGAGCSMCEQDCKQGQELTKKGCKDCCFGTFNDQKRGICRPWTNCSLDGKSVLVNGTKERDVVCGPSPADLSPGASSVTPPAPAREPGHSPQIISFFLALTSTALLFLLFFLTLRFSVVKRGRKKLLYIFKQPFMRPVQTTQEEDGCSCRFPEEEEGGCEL
UniProt P41274, residues 104-309: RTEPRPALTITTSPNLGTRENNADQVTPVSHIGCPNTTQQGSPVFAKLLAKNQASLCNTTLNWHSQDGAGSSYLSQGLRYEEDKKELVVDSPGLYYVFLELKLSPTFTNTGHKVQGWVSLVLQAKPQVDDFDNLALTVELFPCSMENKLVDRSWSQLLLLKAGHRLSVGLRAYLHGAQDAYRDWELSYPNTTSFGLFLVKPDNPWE

Results are given in words; binding and its absence hold for the method and conditions named. Some entries that bind do so weakly or less than the wild type. For some assays here: Tags and fused reporters may be left off the sequences shown.

The target in assay [1] is hCD137L-mFc (human CD137L extracellular domain and mouse IgG-Fc fusion protein) (human) (UniProt P41273). In words: ELISA; purified hCD137L-mFc coated at 1 µg/ml; expression supernatants of human or mouse CD137-hFc fragments added; goat anti-human IgG-HRP; positive if P/N>2.1; only the target purified.
In assay [2] the target is T1, mE4 (mouse CD137 CRDI+II+III, human IgG-Fc fusion protein) (mouse) (UniProt P20334).
T1 sequence: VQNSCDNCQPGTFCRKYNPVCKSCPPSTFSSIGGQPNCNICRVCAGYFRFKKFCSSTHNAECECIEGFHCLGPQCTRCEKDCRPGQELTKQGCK
In words: condition: only proteins boiled and run on SDS-PAGE with 2-ME (reduced); 1 µg/ml mCD137L-mFc; far-Western, overlay or dot blot; purified proteins boiled 5 min in loading buffer with 2-ME, 10% SDS-PAGE, blotted on nitrocellulose, incubated with 1 µg/ml mCD137L-mFc, goat anti-mouse IgG (ECL); both purified.

Assay [3] deals with T2, mE2 (mouse CD137 CRDI, human IgG-Fc fusion protein) (mouse) (UniProt P20334).
T2 sequence: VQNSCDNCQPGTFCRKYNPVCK
Described as above.

For assay [4], the target named is T3, mouse CD137 extracellular domain with hFc tail (mE-hFc) (mouse) (UniProt P20334).
T3 sequence: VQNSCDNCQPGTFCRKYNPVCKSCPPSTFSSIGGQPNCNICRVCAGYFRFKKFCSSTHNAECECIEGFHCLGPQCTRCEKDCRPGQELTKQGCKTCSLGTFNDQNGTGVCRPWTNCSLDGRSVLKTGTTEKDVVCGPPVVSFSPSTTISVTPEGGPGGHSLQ
Described as above.

The target of assay [5] is T4, mE3 (mouse CD137 CRDI+II, human IgG-Fc fusion protein) (mouse) (UniProt P20334).
T4 sequence: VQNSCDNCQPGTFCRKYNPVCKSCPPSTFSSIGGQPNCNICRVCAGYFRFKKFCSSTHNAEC
Described as above.

Assay [6] addresses T2, mE2 (mouse CD137 CRDI, human IgG-Fc fusion protein) (mouse). As to the kind of experiment: ELISA; mE100 and mE2 coated (also at 5 µg/ml), mCD137L added; OD 450 nm; both purified.
For assay [7], the target named is T5, mE100 (mouse CD137 CRDIII only, Fc fusion expressed with pCDM-L) (mouse) (UniProt P20334).
T5 sequence: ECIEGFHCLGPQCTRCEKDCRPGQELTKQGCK
The assay is described as above.

Assay [8] has as its target T3, mouse CD137 extracellular domain with hFc tail (mE-hFc) (mouse). As to the kind of experiment: far-Western, overlay or dot blot; mE-hFc and mE3-hFc in loading buffer without 2-ME and not boiled, 10% SDS-PAGE, blotted on nitrocellulose, incubated with 1 µg/ml mCD137L-mFc, goat anti-mouse IgG (ECL); both purified.
Assay [9] deals with T4, mE3 (mouse CD137 CRDI+II, human IgG-Fc fusion protein) (mouse). The assay is described as above.
The target of assay [10] is hCD137L-mFc (human CD137L extracellular domain and mouse IgG-Fc fusion protein) (human) (UniProt P41273). As to the kind of experiment: ELISA; purified hCD137L-mFc coated at 1 µg/ml; purified hE3 added at 0.2 to 10 µg/ml; goat anti-human IgG-HRP; both purified.
The target of assay [11] is hE (full-length human CD137 extracellular domain, human IgG-Fc fusion protein) (human) (UniProt Q07011). As to the kind of experiment: far-Western, overlay or dot blot; mE and hE run on 10% SDS-PAGE without 2-ME, blotted, probed with hCD137L-mFc and HRP-goat-anti-mouse IgG (ECL); both purified.
Assay [12] has as its target T3, mouse CD137 extracellular domain with hFc tail (mE-hFc) (mouse). The description is as above.
Assay [13] has as its target hCD137L-hFc (human CD137L extracellular domain with human IgG-Fc fusion protein) (human) (UniProt P41273). As to the kind of experiment: ELISA; purified hCD137L-hFc coated at 1 µg/ml; expression supernatants of hE300, hE3003, hE3004 (mFc) added; goat anti-mouse IgG-HRP; only the target purified. A general note: In an ELISA, binding on a coated surface is turned into a signal by an enzyme label.

For assay [14], the target named is hCD137L-mFc (human CD137L extracellular domain and mouse IgG-Fc fusion protein) (human) (UniProt P41273). In words: ELISA; blocking: purified hCD137-hFc (1.0 µg/ml) preincubated overnight at 4°C with anti-human CD137 mAbs or OKT3, added to coated purified hCD137L-mFc (1 µg/ml) for 2 h at 37°C; mouse anti-human Fc-HRP; both purified.

In the case of “hE4 (human CD137 CRDI+II+III, human IgG-Fc fusion protein) (from UniProt Q07011 24-118)”, in [1], the binding result is “binds”.

Regarding “mCD137L-mFc (mouse CD137L extracellular domain with mouse IgG-Fc fusion protein) (from UniProt P41274 104-309)”, the binding result in assay [2] is listed as “no binding”; in [3], “no binding”; in assay [4], “no binding”; in assay [5], “no binding”; in assay [6] it was “no binding (tested: proteins also coated at 5 µg/ml)”; in assay [7], “no binding (tested: proteins also coated at 5 µg/ml)”. In addition, the binding result in assay [8] and in assay [9] was “binds” in each case.

For the substance “hE3 (human CD137 CRDI+II, hIgG1-Fc fusion protein) (from UniProt Q07011 24-86)”, the binding result in assay [1] is recorded as “no binding”; in assay [10], “no binding (tested: 10 µg/ml)”.

In the case of “hCD137L-mFc (human CD137L extracellular domain and mouse IgG-Fc fusion protein) (from UniProt P41273 50-254)”, the binding result in assay [11] and in assay [12] was “binds” each time.

As for “hE3003 (human CD137 single CRDIII, mouse IgG-Fc fusion protein) (from UniProt Q07011 87-118)”, the binding entry in assay [13] is “no binding”.

On to “hE (full-length human CD137 extracellular domain, human IgG-Fc fusion protein) (from UniProt Q07011 24-186)”, for which the binding result in assay [1] and in [14] was “binds” in each case.

For the substance “hE2 (human CD137 CRDI, human IgG-Fc fusion protein) (from UniProt Q07011 24-46)”, the binding entry in assay [1] is recorded as “no binding”.
